Assay results as given in PubChem BioAssay AID652104 (National Center for Advancing Translational Sciences (NCATS), 2013).
Among all 410,000 compounds or so, about 7,200 (1.8%) were called active. Inconclusive means that the source gave no clear call. Such entries were picked first, then a sample of the others. Calls follow the shape of the dose curve; as a rule, active = well fitted activation curve with a large enough effect; inconclusive = small, poorly fitted or top-dose-only effect, or another doubt; inactive = no such curve, though single readings can be large or run the other way. Where the call is inconclusive, the potency comes from a doubtful curve fit.

assay: qHTS of TDP-43 Inhibitors; settings: TDP-43 expressing yeast growth rescue, BacTiter-Glo, 24 h; growth rescue (activation): at 46.1 µM (top of the series) unless noted; also: nearly all actives have a fitted effect of over 50% in size; as to growth rescue (activation): % of control where 0% means no effect
Outline: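 Yeast expressing TDP-43 (pregrown in raffinose, seeded at OD600=0.02 in galactose medium) exposed to compounds 24 hr at 30 deg C. Growth read by BacTiter-Glo luminescence; rescue of toxicity appears as increased signal.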
Potency is read from the fitted curve at half-maximal effect; tags tell the direction and shape of the fitted curve.

Potency, inactive:
Cc1ccccc1CCNC(=O)C1CCN(S(=O)(=O)c2ccc3c(ccn3C)c2)CC1
Cc1cc(C)c2c(CC(=O)Nc3ccccc3C(F)(F)F)coc2c1
CCOC(=O)N1CCN(Cc2ccc(O)c3ncccc23)CC1
Cc1oc(-c2ccc(Cl)cc2)nc1CN1CCCC(C(=O)NCc2ccccc2)C1 (stereo not given)
C[C@H](CO)N1C[C@H](C)[C@@H](CN(C)S(=O)(=O)c2ccccc2)Oc2c(NC(=O)NC3CCCCC3)cccc2C1=O
Cc1ccc(-n2c(SCC(=O)N3CCCc4ccccc43)nc3c([nH]c4ccccc43)c2=O)cc1
Cc1cc(/C=N/NC(=O)C(O)(c2ccccc2)c2ccccc2)c(C)n1-c1cccc(C(=O)O)c1
Cc1ccccc1OCCn1c(CCNC(=O)C2CCCCC2)nc2ccccc21
COCCCn1c(-c2ccccc2)nc2ccccc2c1=O
CCNC(=O)C1(C)CCCN(C(=O)COCc2ccccc2)C1 (stereo not given)
Cc1cccc(NC(=O)Cn2c(=O)n(CCCCCC(=O)NCc3ccc4c(c3)OCO4)c(=O)c3sccc32)c1
CC1ON=C(c2ccc(F)cc2)NC1=O (stereo not given)
COC(=O)Cn1c(=NC(=O)c2ccc(S(=O)(=O)N3CCOCC3)cc2)sc2cc(S(N)(=O)=O)ccc21
CC(=O)c1cccc(NC(=O)CN(c2cc(C)cc(C)c2)S(=O)(=O)c2c(C)noc2C)c1
COc1ccccc1C(=O)Nc1ccc(Br)c2cccnc12

Potency, inconclusive:
Cc1sc(NC(=O)c2ccc3ncsc3c2)c(C(N)=O)c1C 35.5 µM [activator, single point]
COc1ccccc1N1CCN(C(=O)c2ccccc2N(C)S(=O)(=O)c2ccc(C)cc2)CC1 11.2 µM [activator, partial curve]
CCCn1cnc2c(oc3ccccc32)c1=O 6.31 µM [activator, full curve, poor fit]
O=c1c(-c2nnc(SCc3ccc(Cl)cc3)o2)cccn1Cc1ccccc1 25.1 µM [activator, single point]
O=Cc1cc2c(cc1[B-](F)(F)F)OCO2 14.1 µM [activator, single point]
Cc1ccc(C)c(OCCC(=O)OCC(=O)N2CCN(c3ccccc3)CC2)c1 15.8 µM [activator, single point]
CCS(=O)(=O)c1ncc(Cl)c(C(=O)NCc2ccc(OC)cc2)n1 20 µM [activator, partial curve]
Cc1nn(C)cc1CN(C)C(=O)c1sc2cccc(Cl)c2c1Cl 11.2 µM [activator, partial curve]
Cc1cc(C)nc(CCNC(=O)c2cc(COc3c(C)cccc3C)on2)n1 10 µM [activator, partial curve]
COc1ccc(C(=O)N2CCCC(c3cc(C(=O)Nc4ccccc4)no3)C2)cc1 (stereo not given) 11.2 µM [activator, partial curve]
COc1ccc([C@H]2CC(=O)C=C(c3cccc(OC(F)(F)F)c3)C2)cc1 35.5 µM [activator, partial curve]
CCN(CC)C(=O)c1cccc(-c2csc(C(O)c3ccc(OC)cc3)n2)c1 (stereo not given) 0.562 µM [activator, full curve, poor fit]
CCOc1ccccc1NC(=S)Nn1cnnc1 10 µM [activator, partial curve]
Cc1ccc(/C=C(\C#N)C(=O)Nc2cccc(Br)c2)o1 0.562 µM [activator, full curve, poor fit]
Cn1c(=O)c2nc(Cl)c(-c3ccccc3)nc2n(C)c1=O 28.2 µM [activator, partial curve]
CC1(c2ccc3ccccc3c2)CCC(=O)O1 (stereo not given) 15.8 µM [activator, partial curve]
O=C(Nc1ccc(Br)cc1)C1OCCc2ccccc21 (stereo not given) 3.16 µM [activator, full curve]
O=c1[nH]cnc2c1c(-c1ccccc1)cn2-c1ccc(F)cc1 15.8 µM [activator, single point]
CCc1cc([N+](=O)[O-])cc(CC)c1N 11.2 µM [activator, single point]
N#Cc1ncccc1CCc1cccc(Cl)c1 12.6 µM [activator, single point]
CCc1ccc(C2=CC(c3c(F)cccc3Cl)n3c(nc4ccccc43)N2)cc1 (stereo not given) 35.5 µM [activator, single point]
CC(C)(C)Cc1c(-c2cccc(Br)c2)nc2ccc(Cl)cn12 35.5 µM [activator, partial curve]
CCCC(=O)NC(=S)Nc1ccc(S(=O)(=O)Nc2ccc(OCC)cc2)cc1 22.4 µM [activator, single point]
O=c1c2ccccc2oc2c1oc1ccccc12 35.5 µM [activator, single point]
Cc1ccc(S(=O)(=O)N2CCN(Cc3nc4ccc(C)cc4o3)CC2)c(C)c1 10 µM [activator, partial curve]
COc1ccc(NC(=S)NCCC(c2ccccc2)c2ccccc2)c(OC)c1 35.5 µM [activator, single point]
COc1ccc(CCNc2oc(COc3ccccc3F)nc2C#N)cc1 14.1 µM [activator, single point]
COc1ccc(S(=O)(=O)NNC(=O)C2CC(c3cccnc3)=NO2)cc1 (stereo not given) 5.62 µM [activator, single point]
COc1ccccc1C(=O)Nc1sc(Nc2ccccc2)nc1C(N)=O 22.4 µM [activator, partial curve, poor fit]
C/C(=N\Nc1cc(N2CCOCC2)nc(C)n1)c1cccc([N+](=O)[O-])c1 11.2 µM [activator, partial curve]
CCCCc1ccc(S(=O)(=O)Nc2nnc(C)s2)cc1 20 µM [activator, single point]
CSC[C@H]1CN(Cc2ccccc2)C(=O)[C@@H]1CC(=O)Nc1ccccc1 35.5 µM [activator, single point]
OC(c1ccc2ccccc2n1)c1c(Cl)cccc1Cl (stereo not given) 7.94 µM [activator, partial curve]
C/C(=N/Nc1nc(-c2ccccc2)cc(-c2ccc(F)cc2)n1)c1cccc(N)c1 35.5 µM [activator, single point]
COc1cccc2sc(N(C)c3ccccc3)nc12 0.562 µM [activator, full curve, poor fit]
Oc1c(C(c2ccco2)N2CCN(C(c3ccccc3)c3ccccc3)CC2)sc2ncnn12 (stereo not given) 2.82 µM [activator, full curve, poor fit]
COc1ccc(N=N/C(=C\O)C(=O)c2cccs2)cc1 10 µM [activator, partial curve]
CN(NC(=O)c1ccc(Cl)cc1)c1cccc(Cl)n1 35.5 µM [activator, single point]
Cn1cc(/C=C(\C#N)C(=O)Nc2ccccc2O)c2ccccc21 1.58 µM [activator, partial curve]
COC(=O)C1=C(CSc2nc3ccccc3s2)NC(=O)NC1c1ccc(F)cc1 (stereo not given) 2.24 µM [activator, full curve, poor fit]
COc1ccc(NC(=O)c2ccco2)cc1NC(=O)c1cc(OC)c(OC)c(OC)c1 35.5 µM [activator, partial curve, poor fit]
O=C1C(Cl)=C(NCC2CCCO2)C(=O)N1c1cccc(Cl)c1Cl (stereo not given) 22.4 µM [activator, single point]
CCOC(=O)c1cc(-c2ccccc2C)nn1CC1CC(c2cccnc2)=NO1 (stereo not given) 11.2 µM [activator, single point]

Potency, active:
Cc1ccc(C)c(N2CCN(C(=O)C3CCCN(c4ncnc5c4nc4n5CCCCC4)C3)CC2)c1 (stereo not given) 25.1 µM
O=C(C1CCCN(S(=O)(=O)c2cc(Cl)ccc2Cl)C1)N1CCCCCC1 (stereo not given) 11.2 µM
CC(C)Oc1ccc(C2CC(=O)N(c3cccc(Br)c3)C2=O)cc1 (stereo not given) 20 µM
C=CCn1c(SCc2ccc3nonc3c2)nnc1-c1cccs1 17.8 µM
Cc1nnc(NC(=O)c2ccc(S(=O)(=O)N(C)Cc3ccccc3)cc2)o1 17.8 µM
O=C(NCC1CCCO1)c1ccc(COc2ccccc2Br)cc1 (stereo not given) 12.6 µM
Cc1cccc(Oc2cnn(C(C)(C)C)c(=O)c2Cl)c1 10 µM
COc1ccc(-c2cc3c(c4c2ccn4C)C2CCC3C2)cc1 (stereo not given) 35.5 µM
CC(C)CCn1c(/C=C/c2ccccc2)nc2ccccc21 14.1 µM

Growth rescue (activation), inconclusive:
CCOc1ccc(N2C(=O)CC(Sc3ccccc3C(=O)O)C2=O)c([N+](=O)[O-])c1 (stereo not given) -71.2% [activator]
CCCCn1c(N)c(N(CCC(C)C)C(=O)C2CCN(C(=O)c3ccccc3C)CC2)c(=O)[nH]c1=O -33.4% [activator]
O=C(Cc1ccccc1)NC(=S)Nc1ccc(N2CCCCC2)cc1 35.1% [activator]
